# Experimental data reported in the supplement of paper PMC8728848.
# The list shows a part of the results.
# B1: DrGRIFIN (Danio rerio), Q6DGJ1 (protein)
# chain: MTLRFEASCPDGLCPGWSVILKGETPPEASKFEINFLCDRDDRVAFHFNPRFTESDIICNSYMANRWGQEERCNHFPLGVEEPFQIEIYSDNDHFHVYIDKAKVMQYKHRVEDLKTITKLQVVNDVKISSLEITKKLFY
# How the values were obtained:
# Experiment in all cases: glycan array binding signal (z-score within array); higher = stronger binding
# Settings in all cases: glycan notation: IUPAC condensed, linker removed
# [1] = molecular target: Neu5Ac(a2-8)Neu5Ac
# How it was run: (§1)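 Negative Z-scores can be read as non-binding. The Z-score is calculated within each array and then averaged across arrays of one protein sequence at different concentrations or buffers and across linkers. Arrays, 3228 in all, were curated from the Consortium for Functional Glycomics database and kept only where the protein sequence was available.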
# [2] = molecular target: Neu5Ac(a2-8)Neu5Ac(a2-3)Gal(b1-3)GalNAc(b1-4)[Neu5Ac(a2-3)]Gal(b1-4)Glc
# How it was run: as §1
# [3] = molecular target: Neu5Ac(a2-8)Neu5Ac(a2-3)Gal(b1-3)GalNAc(b1-4)[Neu5Ac(a2-8)Neu5Ac(a2-3)]Gal(b1-4)Glc
# How it was run: as §1
# [4] = molecular target: Neu5Ac(a2-8)Neu5Ac(a2-3)Gal(b1-4)Glc
# How it was run: as §1
# [5] = molecular target: Neu5Ac(a2-8)Neu5Ac(a2-3)Gal(b1-4)GlcNAc
# How it was run: as §1
# [6] = molecular target: Neu5Ac(a2-8)Neu5Ac(a2-3)[Gal(b1-3)GalNAc(b1-4)]Gal(b1-4)Glc
# How it was run: as §1
# [7] = molecular target: Neu5Ac(a2-8)Neu5Ac(a2-3)[GalNAc(b1-4)]Gal(b1-4)Glc
# How it was run: as §1
# [8] = molecular target: Neu5Ac(a2-8)Neu5Ac(a2-8)Neu5Ac
# How it was run: as §1
# [9] = molecular target: Neu5Ac(a2-8)Neu5Ac(a2-8)Neu5Ac(a2-3)Gal(b1-4)Glc
# How it was run: as §1
# [10] = molecular target: Neu5Ac(a2-8)Neu5Ac(a2-8)Neu5Ac(a2-3)[Gal(b1-3)GalNAc(b1-4)]Gal(b1-4)Glc
# How it was run: as §1
# [11] = molecular target: Neu5Ac(a2-8)Neu5Ac(a2-8)Neu5Ac(a2-3)[GalNAc(b1-4)]Gal(b1-4)Glc
# How it was run: as §1
# [12] = molecular target: Neu5Ac(a2-8)Neu5Ac(a2-8)Neu5Ac(a2-8)Neu5Ac(a2-3)[GalNAc(b1-4)]Gal(b1-4)Glc
# How it was run: as §1
# [13] = molecular target: Neu5Ac(a2-8)Neu5Gc(a2-3)Gal(b1-4)GlcNAc
# How it was run: as §1
# [14] = molecular target: Neu5Ac(b2-6)Gal(b1-4)GlcNAc
# How it was run: as §1
# [15] = molecular target: Neu5Ac(b2-6)GalNAc
# How it was run: as §1
# [16] = molecular target: Neu5Ac9Ac(a2-3)Gal(b1-3)GlcNAc
# How it was run: as §1
# [17] = molecular target: Neu5Ac9Ac(a2-3)Gal(b1-4)GlcNAc
# How it was run: as §1
# [18] = molecular target: Neu5Ac9Ac(a2-6)Gal(b1-4)GlcNAc
# How it was run: as §1
# [19] = molecular target: Neu5Gc(a2-3)Gal(b1-3)GlcNAc
# How it was run: as §1
# [20] = molecular target: Neu5Gc(a2-3)Gal(b1-3)[Fuc(a1-4)]GlcNAc
# How it was run: as §1
# [21] = molecular target: Neu5Gc(a2-3)Gal(b1-4)Glc
# How it was run: as §1
# [22] = molecular target: Neu5Gc(a2-3)Gal(b1-4)GlcNAc
# How it was run: as §1
# [23] = molecular target: Neu5Gc(a2-3)Gal(b1-4)GlcNAc(b1-3)Gal(b1-4)GlcNAc(b1-2)Man(a1-3)[Neu5Gc(a2-3)Gal(b1-4)GlcNAc(b1-3)Gal(b1-4)GlcNAc(b1-2)Man(a1-6)]Man(b1-4)GlcNAc(b1-4)GlcNAc
# How it was run: as §1
# [24] = molecular target: Neu5Gc(a2-3)Gal(b1-4)[Fuc(a1-3)]GlcNAc
# How it was run: as §1
# [25] = molecular target: Neu5Gc(a2-6)Gal(b1-4)GlcNAc
# How it was run: as §1
# [26] = molecular target: Neu5Gc(a2-6)GalNAc
# How it was run: as §1
# [27] = molecular target: Neu5Gc(a2-8)Neu5Ac(a2-3)Gal(b1-4)GlcNAc
# How it was run: as §1
# [28] = molecular target: Neu5Gc(a2-8)Neu5Gc(a2-3)Gal(b1-4)GlcNAc
# How it was run: as §1
# [29] = molecular target: Neu5Gc(a2-8)Neu5Gc(a2-3)Gal(b1-4)GlcNAc(b1-3)Gal(b1-4)GlcNAc
# How it was run: as §1
# [30] = molecular target: Neu5Gc(a2-8)Neu5Gc(a2-6)Gal(b1-4)GlcNAc
# How it was run: as §1
# [31] = molecular target: Neu5Gc(b2-6)Gal(b1-4)GlcNAc
# How it was run: as §1
binder,measurement,setting,value
B1,glycan array binding signal (z-score),[1],-0.131
same,glycan array binding signal (z-score),[2],-0.174
same,glycan array binding signal (z-score),[3],-0.162
same,glycan array binding signal (z-score),[4],-0.18
same,glycan array binding signal (z-score),[5],-0.125
same,glycan array binding signal (z-score),[6],-0.172
same,glycan array binding signal (z-score),[7],-0.146
same,glycan array binding signal (z-score),[8],-0.159
same,glycan array binding signal (z-score),[9],-0.178
same,glycan array binding signal (z-score),[10],-0.144
same,glycan array binding signal (z-score),[11],-0.185
same,glycan array binding signal (z-score),[12],-0.163
same,glycan array binding signal (z-score),[13],-0.172
same,glycan array binding signal (z-score),[14],-0.179
same,glycan array binding signal (z-score),[15],-0.135
same,glycan array binding signal (z-score),[16],-0.131
same,glycan array binding signal (z-score),[17],-0.192
same,glycan array binding signal (z-score),[18],-0.127
same,glycan array binding signal (z-score),[19],-0.223
same,glycan array binding signal (z-score),[20],-0.165
same,glycan array binding signal (z-score),[21],-0.144
same,glycan array binding signal (z-score),[22],-0.208
same,glycan array binding signal (z-score),[23],-0.11
same,glycan array binding signal (z-score),[24],-0.167
same,glycan array binding signal (z-score),[25],-0.207
same,glycan array binding signal (z-score),[26],-0.148
same,glycan array binding signal (z-score),[27],-0.175
same,glycan array binding signal (z-score),[28],-0.16
same,glycan array binding signal (z-score),[29],-0.191
same,glycan array binding signal (z-score),[30],-0.187
same,glycan array binding signal (z-score),[31],-0.102
